Measured values: PubChem BioAssay AID588342 (National Center for Advancing Translational Sciences (NCATS), 2011)
Values joined by “and” are separate entries in the source; they are usually repeats but may differ in a detail not shown here. Equal entries are not always repeated. The whole screen tested about 360,000 compounds, of which about 25,000 (6.9%) were called active. The inconclusive results got no clear call from the source; some entries with a clear call stand among them for comparison. Calls follow the shape of the dose curve; as a rule, active = well fitted inhibition curve with a large enough effect; inconclusive = small, poorly fitted or top-dose-only effect; inactive = flat fitted curve, though single readings scatter. Potencies of inconclusive entries are doubtful fits and often do not repeat. The source holds several records for some structures; these can differ, active in one and inactive in another.

Each compound was assayed against Luciferin 4-monooxygenase (Photinus pyralis) (UniProt P08659) (assay: qHTS profiling assay for firefly luciferase inhibitor/activator using purifed enzyme and Km concentrations of substrates (counterscreen for miR-21 project)). Details: purified FLuc, luminescence inhibition; series mostly up to 57.5 µM.
Chain of UniProt P08659 (P08659 whole entry, looked up): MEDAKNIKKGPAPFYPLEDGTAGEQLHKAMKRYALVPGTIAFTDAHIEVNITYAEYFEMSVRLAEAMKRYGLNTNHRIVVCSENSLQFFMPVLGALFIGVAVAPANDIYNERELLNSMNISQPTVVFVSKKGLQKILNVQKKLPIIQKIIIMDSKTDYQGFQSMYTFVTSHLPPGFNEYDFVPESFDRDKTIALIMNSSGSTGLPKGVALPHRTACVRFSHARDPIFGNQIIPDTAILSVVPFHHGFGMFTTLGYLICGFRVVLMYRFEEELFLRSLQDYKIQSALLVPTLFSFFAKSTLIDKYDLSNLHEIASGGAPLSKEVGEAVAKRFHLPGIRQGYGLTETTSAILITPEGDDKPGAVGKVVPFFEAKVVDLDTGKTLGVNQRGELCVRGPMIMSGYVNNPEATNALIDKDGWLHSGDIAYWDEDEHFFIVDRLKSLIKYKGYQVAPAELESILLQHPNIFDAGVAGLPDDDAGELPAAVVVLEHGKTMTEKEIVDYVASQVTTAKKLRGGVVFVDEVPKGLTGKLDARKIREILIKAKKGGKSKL
Method in brief: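 Purified P. pyralis luciferase (10nM final) with 10uM D-luciferin and 10uM ATP (Km levels) in 50mM Tris acetate pH 7.5, 10mM Mg acetate, 0.01% Tween-20, 0.05% BSA; qHTS 6-point titration, ~60 µM downward; luminescence read.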
Also: nearly all actives have a fitted effect of over 55% in size.
Potency is read from the fitted curve at half-maximal effect; tags tell the direction and shape of the fitted curve.

Question: How did the Potency turn out when `CCS(=O)(=O)N1N=C(c2cccs2)CC1c1cc2cc(C)ccc2nc1Cl` (configuration not stated) was run?
Answer: Its Potency is active: 16.9 µM.

Question: How did the Potency turn out when `Cc1ccc(C(=O)N/N=C/c2cc(C)n(-c3ccc(Br)cc3)c2C)cc1[N+](=O)[O-]` was run?
Answer: The Potency was inconclusive: 10.7 µM [inhibitor, partial curve, poor fit].

Question: `NS(=O)(=O)c1ccc(NC(=O)c2ccc3c(c2)OCO3)cc1` was tested. Which Potency did it give?
Answer: Its Potency is “inactive”.

Question: `Cc1ccccc1-n1nnnc1SCc1ncc(-c2ccccc2)o1` was tested. Which Potency did it give?
Answer: Its Potency is inconclusive: 26.9 µM [inhibitor, partial curve, poor fit].

Question: With `CC(=O)c1c(C)[nH]c(C(=O)Nc2cccc(C)n2)c1C` as the compound, how does the Potency read?
Answer: Its Potency is active: 8.49 µM.

Question: How did the Potency turn out when `CC(=O)c1ccc(N2CCN(c3ccc(NC(=O)c4cccs4)cc3C(=O)O)CC2)cc1` was run?
Answer: The Potency was “inactive”.

Question: How did the Potency turn out when `Cc1cc2c3nonc3ccc2n1-c1ccccc1` was run?
Answer: The Potency was “inactive”.

Question: With `CCC(C)[C@H](NC(=O)Nc1ccc(Oc2ccccc2)cc1)C(=O)O` (some centres not stated) as the compound, how does the Potency read?
Answer: The Potency was inconclusive: 26.9 µM [inhibitor, partial curve].

Question: `COCCN=C1NN=C(c2cc(C)n(CC3CCCO3)c2C)CS1` (configuration not stated) was tested. Which Potency did it give?
Answer: Its Potency is inconclusive: 9.53 µM [inhibitor, partial curve].

Question: With `Cc1csc(SCC(=O)Nc2sc3c(c2C#N)CCC3)n1` as the compound, how does the Potency read?
Answer: Its Potency is inconclusive: 37.9 µM [inhibitor, partial curve, poor fit].

Question: How did the Potency turn out when `Cc1ccc(-n2ncc(C(=O)NCCCN3CCCCC3)c2C2CCN(C(=O)OC(C)(C)C)CC2)c(C)c1` was run?
Answer: The Potency was “inactive”.

Question: With `CCCCCCCNC1=CC(=O)CC(c2ccccc2)C1` (configuration not stated) as the compound, how does the Potency read?
Answer: The Potency was inconclusive: 37.9 µM [inhibitor, partial curve, poor fit].

Question: `CCC1CCCCN1C(=O)COC(=O)c1cc2ccccc2cc1O` (configuration not stated) was tested. Which Potency did it give?
Answer: The Potency was inconclusive: 30.1 µM [inhibitor, single point].

Question: How did the Potency turn out when `Oc1ccc(Nc2nc3ccccc3n3cnnc23)cc1` was run?
Answer: Its Potency is inconclusive: 37.9 µM [inhibitor, partial curve, poor fit].

Question: With `Cc1cccc(Cn2c(=O)n(Cc3ccc(C(=O)NC4CCN(Cc5ccccc5)CC4)cc3)c(=O)c3ccccc32)c1` as the compound, how does the Potency read?
Answer: The Potency was “inactive”.

Question: `Cc1ccc(/C=N/NC(=O)NC23CC4CC(CC(C4)C2)C3)o1` was tested. Which Potency did it give?
Answer: The Potency was inconclusive: 21.3 µM [inhibitor, partial curve].

Question: How did the Potency turn out when `CC(C)CN1CCC(=O)N(CCSc2ccc(Br)cc2)CC1` was run?
Answer: Its Potency is “inactive”.

Question: `CCOC(=O)c1cnc2c(C)cc(C)cc2c1Nc1cccc(C(=O)O)c1` was tested. Which Potency did it give?
Answer: The Potency was inconclusive: 21.3 µM [inhibitor, partial curve].

Question: With `CC(C)(C)c1cc(=O)n2c(nc3ccccc32)[nH]1` as the compound, how does the Potency read?
Answer: Its Potency is active: 21.3 µM.

Question: With `Cc1ccc(C2c3c(-c4cc(C)ccc4O)n[nH]c3C(=O)N2Cc2ccco2)cc1` (configuration not stated) as the compound, how does the Potency read?
Answer: Its Potency is “inactive”.

Question: For `Cc1oc2cc3c(C(=O)N4CCCCC4)c(C)oc3cc2c1C(=O)N1CCCCC1`, which Potency is on record?
Answer: Its Potency is active: 10.7 µM.

Question: With `N#CCCn1cc(C=C(C#N)C#N)c(-c2ccc(Cl)cc2)n1` as the compound, how does the Potency read?
Answer: The Potency was inconclusive: 37.9 µM [inhibitor, single point].

Question: How did the Potency turn out when `Cc1ccc(NNC(=O)c2cccs2)cc1Cl` was run?
Answer: Its Potency is inconclusive: 16.9 µM [inhibitor, partial curve].

Question: `Cc1ccc(C2=NN(C(=O)CNCCO)C(c3cccs3)C2)cc1` (configuration not stated) was tested. Which Potency did it give?
Answer: Its Potency is inconclusive: 26.9 µM [inhibitor, single point].

Question: How did the Potency turn out when `O=C(Nc1ccccc1)C1=C[C@H](c2ccccc2)C[C@H](OCc2ccc(CO)cc2)O1` was run?
Answer: The Potency was inconclusive: 37.9 µM [inhibitor, single point].

Question: Which Potency does the source give for `Clc1ccc(-c2nnc(CNC3CC3)o2)cc1` here?
Answer: Its Potency is inconclusive: 23.9 µM [inhibitor, partial curve, poor fit].

Question: Which Potency does the source give for `O=C(Nn1c(-c2ccncc2)nc2ccccc2c1=O)c1ccc(Br)cc1` here?
Answer: Its Potency is inconclusive: 16.9 µM [inhibitor, partial curve, poor fit].

Question: `Cc1ccc(NC(=O)NC(=O)CSc2nnc(-c3ccc(Cl)cc3Cl)n2N)c(C)c1` was tested. Which Potency did it give?
Answer: Its Potency is inconclusive: 26.9 µM [inhibitor, single point].

Question: `CCOC(=O)c1[nH]c(C)c(CCC(=O)Nc2ccc(C(C)=O)cc2)c1C` was tested. Which Potency did it give?
Answer: Its Potency is “inactive”.

Question: For `Cc1ccccc1NS(=O)(=O)c1nnc(NC(=O)c2ccc(Cl)cc2)s1`, which Potency is on record?
Answer: The Potency was active: 2.39 µM.

Question: `O=S(=O)(Nc1cccc(-c2ccc(N3CCCCCC3)nn2)c1)c1ccc(F)cc1` was tested. Which Potency did it give?
Answer: The Potency was active: 4.78 µM and active: 5.36 µM.

Question: `O=C1C(c2cccc(Br)c2)N(CCc2ccccc2)C(=O)CN1C1CCCCC1` (configuration not stated) was tested. Which Potency did it give?
Answer: The Potency was “inactive”.

Question: For `C=C(C)[C@@H]1CC=C(CN2CCN(Cc3ccccc3)CC2)CC1`, which Potency is on record?
Answer: The Potency was “inactive”.

Question: With `COc1ccc(NC(=O)CCCn2c(=O)c3cccn3c3ccccc32)c(OC)c1` as the compound, how does the Potency read?
Answer: Its Potency is active: 0.849 µM.

Question: `NC(=O)CSc1cn(CCNC(=O)c2cccs2)c2ccccc12` was tested. Which Potency did it give?
Answer: Its Potency is inconclusive: 30.1 µM [inhibitor, partial curve, poor fit].

Question: Which Potency does the source give for `CS(=O)(=O)c1ccc(Cl)c(C(=O)Nc2ccc3nc(N4CCOCC4)sc3c2)c1` here?
Answer: Its Potency is inconclusive: 26.9 µM [inhibitor, single point].

Question: Which Potency does the source give for `CC(=O)c1cc(C(=O)NC2CCCc3c2cnn3-c2cc(C)cc(C)c2)[nH]n1` (configuration not stated) here?
Answer: Its Potency is inconclusive: 16.9 µM [inhibitor, partial curve].

Question: Which Potency does the source give for `COc1ccccc1OCCNC(=O)C(CCSC)NC(=O)COc1ccccc1` (configuration not stated) here?
Answer: The Potency was “inactive”.

Question: `CCc1ccccc1NC(=O)Cn1c(=O)n(CCCS(=O)(=O)C2CCCCC2)c(=O)c2ccccc21` was tested. Which Potency did it give?
Answer: The Potency was “inactive”.

Question: Which Potency does the source give for `O=C(O)c1ccccc1OC(=O)C12CC3CC(CC(C3)C1)C2` here?
Answer: Its Potency is inconclusive: 33.8 µM [inhibitor, partial curve, poor fit].

Question: Which Potency does the source give for `COc1ccc(C(=O)N(Cc2ccc(N(C)C)cc2)Cc2ccco2)cc1Cl` here?
Answer: Its Potency is inconclusive: 30.1 µM [inhibitor, partial curve, poor fit].

Question: `O=C(NCc1cccnc1)c1cc(Sc2ccc(F)cc2F)nc2ccccc12` was tested. Which Potency did it give?
Answer: The Potency was “inactive”.

Question: How did the Potency turn out when `Cc1cc(-c2ccc(C)c(S(=O)(=O)Nc3ccccc3C(F)(F)F)c2)on1` was run?
Answer: The Potency was inconclusive: 12 µM [inhibitor, partial curve].

Question: With `CC(=O)c1sc2nc(C)c3c(c2c1N)CCCC3` as the compound, how does the Potency read?
Answer: Its Potency is inconclusive: 23.9 µM [inhibitor, single point].

Question: `O=C(CNC(=O)c1cccc(F)c1)N/N=C/c1cccs1` was tested. Which Potency did it give?
Answer: The Potency was inconclusive: 37.9 µM [inhibitor, partial curve, poor fit].

Question: With `O=c1c2ccccc2nnn1CSc1ncnc2ccccc12` as the compound, how does the Potency read?
Answer: Its Potency is inconclusive: 26.9 µM [inhibitor, partial curve, poor fit].

Question: Which Potency does the source give for `Cc1ccc(NC(=O)c2cccnc2C(=O)O)nc1` here?
Answer: The Potency was inconclusive: 37.9 µM [inhibitor, partial curve, poor fit].

Question: How did the Potency turn out when `CC(C)NC(=S)NNc1nc2ccccc2s1` was run?
Answer: Its Potency is inconclusive: 30.1 µM [inhibitor, partial curve, poor fit].

Question: With `O=Cc1cn(-c2ccccc2)nc1-c1ccc(F)cc1` as the compound, how does the Potency read?
Answer: Its Potency is active: 12 µM.

Question: `Cc1cccc(Nc2ccc(C(=O)N3CCOCC3)cn2)c1` was tested. Which Potency did it give?
Answer: Its Potency is inconclusive: 23.9 µM [inhibitor, partial curve, poor fit].

Question: For `COc1cccc(CNC(=O)CN2C(=O)CSc3c2c(C)nn3-c2ccccc2)c1OC`, which Potency is on record?
Answer: Its Potency is “inactive”.

Question: Which Potency does the source give for `C=CCn1c(C)cc(C(=O)COC(=O)/C=C/c2ccc(OC)cc2)c1C` here?
Answer: The Potency was inconclusive: 15.1 µM [inhibitor, partial curve].

Question: With `Cc1ccc(Cl)cc1-n1c(=O)c2sc3ccccc3c2n(CC(=O)NC2CCCCC2)c1=O` as the compound, how does the Potency read?
Answer: Its Potency is “inactive”.

Question: How did the Potency turn out when `Cc1ccc(C)c(N2CCN(C(=O)Nc3ccc4c(c3)N(C)C(=O)CS4)CC2)c1` was run?
Answer: Its Potency is inconclusive: 21.3 µM [inhibitor, partial curve, poor fit].

Question: Which Potency does the source give for `CC1CCCC(C)N1C(=O)COC(=O)c1c[nH]c2ccccc12` (configuration not stated) here?
Answer: The Potency was inconclusive: 23.9 µM [inhibitor, partial curve, poor fit].

Question: Which Potency does the source give for `O=C(Nc1nc2ccsc2c(=O)s1)C1CCC1` here?
Answer: Its Potency is active: 19 µM.

Question: Which Potency does the source give for `COc1ccc(N2C(=O)NC(NC(=O)C(C)(C)C)(C(F)(F)F)C2=O)cc1` (configuration not stated) here?
Answer: Its Potency is “inactive”.

Question: With `CC1=C(C(=O)OC(C)C)C(c2ccccc2)NC(=O)N1C` (configuration not stated) as the compound, how does the Potency read?
Answer: Its Potency is “inactive”.

Question: Which Potency does the source give for `CCCn1c(COc2ccccc2OC)nc2ccccc21` here?
Answer: The Potency was inconclusive: 21.3 µM [inhibitor, partial curve, poor fit].

Question: `CC1(C)CC(=O)C2=C(C1)Nc1cc(Cl)ccc1S2` was tested. Which Potency did it give?
Answer: The Potency was “inactive”.

Question: With `Cc1ccc(NC(=O)Nc2cccnc2)cc1` as the compound, how does the Potency read?
Answer: The Potency was active: 10.7 µM.

Question: How did the Potency turn out when `O=C(OCC(=O)c1ccccc1Br)c1ccccn1` was run?
Answer: The Potency was inconclusive: 23.9 µM [inhibitor, single point].

Question: `Cc1c(Br)c([N+](=O)[O-])nn1CC(=O)Nc1ccc(Cc2ccncc2)cc1` was tested. Which Potency did it give?
Answer: The Potency was “inactive”.

Question: `O=C(NNC(=O)c1cc2cc(Br)ccc2oc1=O)c1ccc(O)cc1O` was tested. Which Potency did it give?
Answer: The Potency was inconclusive: 26.9 µM [inhibitor, partial curve].

Question: Which Potency does the source give for `O=C(N/N=C/c1ccncc1)c1cccc(N/N=C/c2ccncc2)c1` here?
Answer: The Potency was active: 10.7 µM.

Question: How did the Potency turn out when `CCOc1ccccc1NC(=O)c1sc2nc(C)cc(C)c2c1N` was run?
Answer: The Potency was “inactive”.

Question: With `Cc1ccc(C(=O)Nc2cc([N+](=O)[O-])ccc2F)s1` as the compound, how does the Potency read?
Answer: The Potency was inconclusive: 23.9 µM [inhibitor, partial curve, poor fit].

Question: `COc1ccc(NC(=O)c2cc(C)nn2-c2ccccc2)cc1` was tested. Which Potency did it give?
Answer: The Potency was inconclusive: 26.9 µM [inhibitor, partial curve, poor fit].

Question: For `CCCc1cc(C(=O)NCc2ccccc2)no1`, which Potency is on record?
Answer: The Potency was inconclusive: 21.3 µM [inhibitor, partial curve, poor fit].

Question: With `COc1ccc(/C=N/NC(=O)c2ccc(Cl)cc2)cc1COC(C)=O` as the compound, how does the Potency read?
Answer: The Potency was “inactive”.

Question: How did the Potency turn out when `CCc1ccc(/C=C/C(=O)C2C(=O)c3ccccc3C2=O)cc1` was run?
Answer: The Potency was active: 0.426 µM.

Question: `S=C(NCc1ccccn1)Nc1ccc(Br)cc1Cl` was tested. Which Potency did it give?
Answer: The Potency was inconclusive: 37.9 µM [inhibitor, single point].
